# In PubChem BioAssay (Tox21):
# Where “and” joins values, the source holds several entries; their conditions need not be identical. Equal values may be shown once. The inconclusive results got no clear call from the source; some entries with a clear call stand among them for comparison. Potencies beside an inconclusive call are fits to weak or partial responses and may not hold up. Calls of active or inactive are those of the source. Calls come from the whole dose curve; as a rule, active = well fitted curve in the direction sought with a large enough effect in the repeat runs; inconclusive = weak or mixed curves; inactive = no such curve, though single readings can be large; an effect the other way counts as inactive or inconclusive.
# System: not listed separately
# Test: Caspase-3/7 induction in CHO-K1 cells by small molecules, qHTS cell viability counter screen (AID 1346979); note: nearly all actives have a fitted effect of over 35% in size
# Details: CellTiter-Fluor fluorescence, 17 h; series mostly up to 92.4 µM; activity change, negative = cytotoxicity: at the top concentration
# In short: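 Viability readout by fluorescence (CellTiter-Fluor) on wild-type CHO-K1 cells exposed for 16hr at 37C and 5% CO2 to compounds delivered in DMSO; reagent incubated 1hr before reading.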
# % is set by controls: 0 for no effect and ±100 for the full control effect; potency is the fitted concentration of half-maximal effect; tags give direction and shape of the fitted curve.
Compound,"activity change, negative = cytotoxicity",Potency
O=C(O)c1cccc(Cl)n1,inactive: 7.31%,
C/C(=C(/OCCOc1ccc(Cl)cc1)c1ccc(Cl)cc1Cl)n1ccnc1,,"inconclusive: 33.5 µM [cytotoxic, single point]"
CN1CCC(=C2c3ccccc3C=Cc3ccccc32)CC1,,"inconclusive: 33.5 µM [cytotoxic, partial curve]"
CC(=O)c1ccccc1,,inactive
CCN(CC)CCSC(=O)C(c1ccccc1)c1ccccc1,,"inconclusive: 33.5 µM [cytotoxic, single point]"
COc1ccccc1Oc1c(NS(=O)(=O)c2ccc(C(C)(C)C)cc2)nc(-c2ncccn2)nc1OCCO,,"inconclusive: 33.5 µM [cytotoxic, partial curve]"
CCCCC/C=C\C/C=C\CCCCCCCC(=O)NC(C)c1ccccc1 (stereo not given),,active: 26.6 µM
O=S(=O)(O)c1ccccc1/C=C/c1ccc(-c2ccc(/C=C/c3ccccc3S(=O)(=O)O)cc2)cc1,,"inconclusive: 55.2 µM [rising, partial curve]"
Cc1oc(-c2ccccc2)nc1CCOc1cccc2c1ccn2CCC(=O)O,,active: 34.4 µM
CCCN(CCc1cccs1)[C@H]1CCc2c(O)cccc2C1,,"inconclusive: 33.5 µM [cytotoxic, single point]"
OC[C@H]1O[C@@H](O[C@@H]2[C@@H](CO)O[C@](O)(CO)[C@H]2O)[C@H](O)[C@@H](O)[C@H]1O,inactive: 2.05% [at 42.5 µM],
O=[N+]([O-])c1ccc(O)cc1,,active: 56.6 µM and active: 54.5 µM and active: 48.6 µM
CCOC(=O)c1ccc(OC(=O)CCCCCN=C(N)N)cc1,inactive: 0.706% [at 42.5 µM],
COC(=O)C1=C(C)NC(C)=C(C(=O)O[C@@H]2CCCN(Cc3ccccc3)C2)[C@@H]1c1cccc([N+](=O)[O-])c1,,active: 29.8 µM
CCCCOc1ccc(C(=O)CCN2CCCCC2)cc1,,active: 29.8 µM
CCOC(=O)C1=C[C@]2(CC)CCCN3CCc4c(n1c1ccccc41)[C@@H]32,,"inconclusive: 29.8 µM [cytotoxic, partial curve]"

# System: not listed separately
# Test: Caspase-3/7 induction in HepG2 cells by small molecules, qHTS cell viability counter screen (AID 1346981); note: nearly all actives have a fitted effect of over 30% in size
# Details: CellTiter-Fluor fluorescence, 17 h; series mostly up to 92.4 µM; activity change, negative = cytotoxicity: at the top concentration
# In short: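 Fluorescence read-out of live-cell protease activity (CellTiter-Fluor) after 1 hr with reagent. This was measured in the same wells as the caspase-3/7 luminescence, on HepG2 cells exposed to DMSO-dissolved compounds for 16 hr at 37 C.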
Compound,Potency,"activity change, negative = cytotoxicity"
Cc1ccc(CCn2c3c(c4cc(Cl)ccc42)CN(C)CC3)cn1,"inconclusive: 33.5 µM [cytotoxic, partial curve, poor fit]",
Cc1ccccc1N=Nc1ccc(N=Nc2c(O)ccc3ccccc23)c(C)c1,"inconclusive: 10.6 µM [cytotoxic, full curve]",
C=CCOC(=O)/C=C\C(=O)OCC=C,,inactive: 4.72%
O=C(Nc1ccc(Oc2ccc(Cl)cc2)c(Cl)c1)c1cc(I)cc(I)c1O,"inconclusive: 37.6 µM [cytotoxic, single point]",
CN1CCC(N(Cc2cccs2)c2ccccc2)CC1,"inconclusive: 33.5 µM [cytotoxic, single point]",
COc1cc(C(C)C)c2c(c1)S(=O)(=O)N(COc1cc(=O)n3cccc(OCCN4CCCCC4)c3n1)C2=O,"inconclusive: 16.4 µM [cytotoxic, single point]",
NNc1nc(-c2ccc(N)cc2)cs1,"inconclusive: 61.1 µM [cytotoxic, single point]",
Oc1ccc(CCNCCCCCCNCCc2ccccc2)cc1O,,inactive: -1.82% [at 42.5 µM]
O=C(N/N=C/c1ccc([N+](=O)[O-])o1)c1ccc(O)cc1,active: 29.8 µM,
Cc1cccc(C(C)(C)C)c1O,,inactive: -1.01%

# Target: Nuclear receptor subfamily 1 group I member 2 (Homo sapiens) (UniProt O75469)
# Test: Human pregnane X receptor (PXR) small molecule agonists, qHTS assay (AID 1346982); note: nearly all actives have a fitted effect of over 35% in size
# Details: PXR-Luc HepG2, CYP3A4 luciferase reporter, 24 h; series mostly up to 92.4 µM; activation: at the top concentration
# In short: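 HepG2 PXR-Luc reporter line, 5% charcoal-stripped FBS; 5 hr pre-incubation, compound (DMSO) 24 hr at 37 C/5% CO2; ONE-Glo 30 min RT; luminescence read-out.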
# UniProt O75469, sequence (O75469 whole entry, looked up): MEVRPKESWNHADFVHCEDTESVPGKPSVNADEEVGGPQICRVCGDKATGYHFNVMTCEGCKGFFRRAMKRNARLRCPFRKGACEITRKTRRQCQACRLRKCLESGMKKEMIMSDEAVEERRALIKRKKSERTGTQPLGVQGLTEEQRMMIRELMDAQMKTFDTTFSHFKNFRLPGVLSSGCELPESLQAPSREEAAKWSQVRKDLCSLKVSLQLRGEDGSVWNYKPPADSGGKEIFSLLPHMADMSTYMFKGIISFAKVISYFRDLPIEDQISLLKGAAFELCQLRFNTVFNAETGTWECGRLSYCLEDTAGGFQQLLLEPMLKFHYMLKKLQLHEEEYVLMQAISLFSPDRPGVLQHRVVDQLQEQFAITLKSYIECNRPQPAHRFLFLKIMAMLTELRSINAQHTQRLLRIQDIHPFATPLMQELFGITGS
Compound,Potency,activation
CCN(CC)CCSC(=O)C(c1ccccc1)c1ccccc1,"inconclusive: 26.6 µM [activator, partial curve]",
CN1CCC(=C2c3ccccc3CCc3sccc32)CC1,"inconclusive: 5.31 µM [activator, partial curve]",
CCN(CCCc1ccccc1)CCCc1ccccc1,"inconclusive: 26.6 µM [activator, partial curve]",
CCCCc1cc2ccccc2c(OCCN(C)C)n1,,inactive: 18% [at 42.5 µM]
NC=O,"inconclusive: 68.6 µM [activator, partial curve, poor fit]",
CCCCCCCC#N,"inconclusive: 48.6 µM [activator, partial curve]",
CCCOC(=O)c1cc(O)c(O)c(O)c1,"inconclusive: 54.2 µM [activator, partial curve]",
CN1CCC(N(Cc2cccs2)c2ccccc2)CC1,"inconclusive: 16.8 µM [activator, single point]",
CC(C)OC=O,"inconclusive: 65 µM [activator, single point]",
C[C@@H]1C[C@H]2O[C@@]3(O[C@@H]2C(C)(C)O)[C@H](O)[C@@]2(C)[C@@H]4CC[C@H]5C(C)(C)[C@@H](O[C@@H]6OC[C@@H](O)[C@H](O)[C@H]6O)CC[C@@]56C[C@@]46CC[C@]2(C)[C@@H]13,"inconclusive: 6.04 µM [activator, full curve, poor fit]",
NNc1nc(-c2ccc(N)cc2)cs1,"inconclusive: 24.3 µM [activator, partial curve]",
Cc1cccc(C(C)(C)C)c1O,inconclusive: 54.5 µM [activator],
Cc1ccc(O)c(N)c1,active: 48.6 µM,
O=C1OCCN1/N=C/c1ccc([N+](=O)[O-])o1,,inactive: -4.18% [at 42.5 µM]
